Data published in article PMC4336329 (PLoS ONE, 2015).
Among all 310,000 compounds or so, about 14,000 (4.5%) showed an effect of 50% or more. The effect is printed as a negative number. Some of the results follow.

target: human ether-à-go-go-related gene (hERG) potassium channel (human, UniProt Q12809); assay: primary screen, population patch clamp on CHO cells stably expressing hERG
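Also: peak tail current of the secondary pulse compared with the same well before compound.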

Chain of human ether-à-go-go-related gene (hERG) potassium channel (Q12809 whole entry, looked up): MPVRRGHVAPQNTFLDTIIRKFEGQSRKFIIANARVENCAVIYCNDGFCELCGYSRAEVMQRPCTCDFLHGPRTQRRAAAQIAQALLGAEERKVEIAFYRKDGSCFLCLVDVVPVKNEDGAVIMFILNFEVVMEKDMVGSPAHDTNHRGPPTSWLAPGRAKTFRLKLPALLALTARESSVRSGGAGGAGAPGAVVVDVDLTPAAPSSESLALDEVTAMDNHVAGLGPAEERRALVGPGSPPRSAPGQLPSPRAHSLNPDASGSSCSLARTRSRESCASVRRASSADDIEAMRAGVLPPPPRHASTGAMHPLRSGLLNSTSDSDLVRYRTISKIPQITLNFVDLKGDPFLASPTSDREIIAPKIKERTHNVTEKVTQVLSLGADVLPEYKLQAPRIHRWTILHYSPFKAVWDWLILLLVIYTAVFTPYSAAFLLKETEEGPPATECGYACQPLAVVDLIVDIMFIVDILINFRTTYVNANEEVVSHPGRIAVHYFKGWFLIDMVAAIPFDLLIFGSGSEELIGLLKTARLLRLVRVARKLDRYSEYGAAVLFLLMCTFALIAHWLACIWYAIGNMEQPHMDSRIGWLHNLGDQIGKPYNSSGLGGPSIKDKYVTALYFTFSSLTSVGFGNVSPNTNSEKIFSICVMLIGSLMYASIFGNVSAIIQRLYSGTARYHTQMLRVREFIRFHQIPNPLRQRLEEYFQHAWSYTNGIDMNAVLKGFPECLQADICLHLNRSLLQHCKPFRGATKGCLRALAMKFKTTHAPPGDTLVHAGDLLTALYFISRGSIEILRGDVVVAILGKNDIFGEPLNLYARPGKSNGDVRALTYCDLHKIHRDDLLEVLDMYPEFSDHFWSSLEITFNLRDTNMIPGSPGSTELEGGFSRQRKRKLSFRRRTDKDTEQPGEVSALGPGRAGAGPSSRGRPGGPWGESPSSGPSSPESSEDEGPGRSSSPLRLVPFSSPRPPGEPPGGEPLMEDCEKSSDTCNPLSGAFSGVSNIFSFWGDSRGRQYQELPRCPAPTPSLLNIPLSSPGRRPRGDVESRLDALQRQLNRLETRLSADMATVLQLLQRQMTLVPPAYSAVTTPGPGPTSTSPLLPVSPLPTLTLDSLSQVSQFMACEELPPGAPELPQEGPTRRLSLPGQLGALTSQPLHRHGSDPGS

SMILES | hERG current change (%, negative = inhibition) at 10uM [%]
CCCNS(=O)(=O)c1ccc(OCC(=O)N2CCC(C(=O)OCC)CC2)cc1 | -12.6
COc1ccc(N2C(=O)c3ccccc3NC2c2ccc(OC)c(Cn3nnc4ccccc43)c2)cc1 (centres unmarked) | -8.85
O=Cc1cccc(OC(=O)c2ccc(Cl)cc2Cl)c1 | 14.9
Cc1nc(-c2cccc(NC(=O)c3ccc(-n4nccc4C)cc3)c2)cs1 | -3.31
CC(=O)O[C@H]1CCC2C3CCC4=CC(=O)CCC4=C3C=C[C@@]21C (some centres unmarked) | 3.64
CCC(=O)Nc1ccc(C(=O)NNC(=O)c2cc(OC)c(OC)c(OC)c2)cc1 | 17
COCC(=O)Nc1ccc(C(=O)Nc2ccccc2Cl)cc1 | -4.02
Cc1cccc(C)c1NC(=O)N1CCCCCCC1 | 11.1
COc1ccc2nc(SCC(=O)NC(C)C)[nH]c2c1 | 17.3
Cc1coc2cc3oc(=O)c(CCC(=O)NCCCN4CCCC4=O)c(C)c3cc12 | 3.48
Cc1ccc(C)c(NC(=S)NCCSc2ccc(Cl)cc2)c1 | 11.9
O=C(NCc1ccc(C(F)(F)F)cc1)C1CC(c2ccc(C(F)(F)F)cc2)=NO1 (centres unmarked) | 6.74
Cc1ccccc1NC(C)C(=O)N/N=C/c1c[nH]c2ccccc12 (centres unmarked) | 42.7
COc1ccccc1-c1cn[nH]c1-c1ccc(OCc2ccccc2F)cc1O | 9.77
CC(C)n1nnnc1SCC(=O)NC1CCCC1 | 14.3
CC(=O)C1=C(C)NC(=O)CC1c1ccccc1Cl (centres unmarked) | -1.65
COc1cccc(NS(=O)(=O)c2ccc3c(c2)N(C(C)=O)CCS3)c1 | 2.67
COc1cccc2cc(C(=O)N3CCCCC3C)c(=O)oc12 (centres unmarked) | -2.3
O=C(Cc1c(F)cccc1Cl)Nc1nc2ccccc2s1 | -14.5
O=C(O)CCSC(=S)N1CCOCC1 | -10.3
CCOC(=O)c1ccc(NC(=S)N2CCN(CCNC3=CC(=O)CC(C)(C)C3)CC2)cc1 | -4.36
CN(C)S(=O)(=O)c1ccc(N2CCCC2)c(C(=O)Nc2nc(-c3cc(F)ccc3F)cs2)c1 | 0.334

SMILES | hERG current change (%, negative = inhibition) at 10uM [%]
Cc1noc(C)c1CSc1ccc2ccccc2n1 | -15.5
CCCN(C(=O)c1cc(Cl)nc2ccccc12)c1c(N)n(Cc2ccccc2)c(=O)[nH]c1=O | -7.07
Clc1ccc(-c2nc(N3CCCCC3)nc3ccccc23)cc1 | 4.29
Cc1ccc(C(=O)N/C(=C\c2ccc(-c3ccccc3[N+](=O)[O-])o2)C(=O)NCCCN(C)C)cc1 | -74.5
CCc1ccc(-c2nc(CS(=O)CC(=O)NCCCN3CCOCC3)c(C)o2)cc1 (centres unmarked) | 19.8
COc1ccc(CN2C(=NC(=O)C3CCCCC3)SC3CS(=O)(=O)CC32)cc1 (centres unmarked) | 5.92
O=C(/C=C/c1ccccc1)Nc1ccc(NC(=O)c2cccs2)cc1 | 6.8
Cc1cc(C(=O)NNC(=O)c2cccs2)nn1C(C)(C)C | 12.3
Cc1ccc(S(=O)(=O)N(c2cccc(C)c2)C2CCS(=O)(=O)C2)cc1 (centres unmarked) | -4.52
COc1ccc(C(C[N+](=O)[O-])c2c(-c3ccccc3)cc3ccccn23)cc1OC (centres unmarked) | -5.28
COc1cccc(-c2sc3ccc(OC)cc3c2C#CC(C)(C)O)c1 | 20.2
Cc1cccc(NC(=O)NNC(=O)COc2ccc(Cl)cc2)c1 | 18.3
NC(=O)N/N=C/c1cc(F)cc(F)c1 | 13.1
COc1ccc(CCN2C(=S)NC3CC2(C)Oc2ccc([N+](=O)[O-])cc23)cc1OC (centres unmarked) | -19
Cc1ccc(C(=O)NC(=S)NCc2ccccc2)cc1Br | 15.3
O=C(O)/C=C\C(=O)Nc1ccc(N2CCN(c3ccc(Cl)c(Cl)c3)CC2)cc1 | 27.1
O=C(Nc1nccs1)c1ccc(COc2ccccc2Cl)o1 | 17.8
CN1C(=S)SC(C)(C)C1(C)NO (centres unmarked) | 12.1
COc1cccc(N2CC(C(=O)Nc3ccc(F)cc3)CC2=O)c1 (centres unmarked) | 6.07
Cc1nn(C)c(Cl)c1CN1CCN(CCC(C)C)C(CCO)C1 (centres unmarked) | 4.03
CC(C)(C)NC(=O)C(c1ccncc1)N(C(=O)Cn1nnc(-c2ccc(F)cc2)n1)c1ccccc1 (centres unmarked) | 17.1
CCOc1ccc(CC(=O)Nc2nccs2)cc1 | -8.5
